At least one read-out could not be matched to a standard name with certainty.
Columns and labels:
ec302 (TEM-10) [1] = assay: Tigemonam potentiation (MPC@4), strain ec302; type: cell-based; conditions: minimum BLI concentration inhibiting growth with tigemonam at 4 ag/mL (so in the source); BLI up to 40
KP1010 (SHV-12) [2] = assay: Tigemonam potentiation (MPC@4), strain KP1010; conditions: minimum BLI concentration inhibiting growth with tigemonam at 4 ag/mL (so in the source); BLI up to 40
KP1010 (SHV-12) [3] = assay: Aztreonam potentiation (MPC@4), strain KP1010; conditions: minimum BLI concentration inhibiting growth with aztreonam at 4 μg/mL; BLI up to 40 μg/mL
KP1005 (CTX-M-14) [4] = assay: Tigemonam potentiation (MPC@4), strain KP1005; conditions: minimum BLI concentration inhibiting growth with tigemonam at 4 ag/mL (so in the source); BLI up to 40
AB1054 (OXA-23) = assay: Meropenem potentiation (MPC@8), strain AB1054; type: cell-based, Acinetobacter baumannii; conditions: minimum BLI concentration inhibiting growth with meropenem at 8 (MPC@8); BLI up to 20
KP1005 (CTX-M-14) [5] = assay: Aztreonam potentiation (MPC@4), strain KP1005; conditions: minimum BLI concentration inhibiting growth with aztreonam at 4 μg/mL; BLI up to 40 μg/mL
ec308 (SHV-5) [6] = assay: Tigemonam potentiation (MPC@4), strain ec308; type: cell-based; conditions: minimum BLI concentration inhibiting growth with tigemonam at 4 ag/mL (so in the source); BLI up to 40
ec308 (SHV-5) [7] = assay: Aztreonam potentiation (MPC@4), strain ec308; conditions: minimum BLI concentration inhibiting growth with aztreonam at 4 μg/mL; BLI up to 40 μg/mL
KP1009 (CTX-M-15) [8] = assay: Tigemonam potentiation (MPC@4), strain KP1009; conditions: minimum BLI concentration inhibiting growth with tigemonam at 4 ag/mL (so in the source); BLI up to 40
ec302 (TEM-10) [9] = assay: Aztreonam potentiation (MPC@4), strain ec302; conditions: minimum BLI concentration inhibiting growth with aztreonam at 4 μg/mL; BLI up to 40 μg/mL
KP1009 (CTX-M-15) [10] = assay: Aztreonam potentiation (MPC@4), strain KP1009; conditions: minimum BLI concentration inhibiting growth with aztreonam at 4 μg/mL; BLI up to 40 μg/mL
EC1010 (CMY-6) = assay: Aztreonam potentiation (MPC@4), strain EC1010; conditions: minimum BLI concentration inhibiting growth with aztreonam at 4 μg/mL; BLI up to 40 μg/mL

Question: What does the source list for `COc1ccc2c(c1C(=O)O)OB(O)CC21CC1` [Compound 11, 2-hydroxy-7-methoxy-spiro[3H-1,2-benzoxaborinine-4,1′-cyclopropane]-8-carboxylic acid]?
Answer: TIG MPC4 TEM-10 ec302 (ec302 (TEM-10) [1]): Y (Y = 5 μg/mL < MPC@4 ≤ 20 μg/mL); TIG MPC4 SHV-12 KP1010 (KP1010 (SHV-12) [2]): X (X = MPC@4 ≤ 5 μg/mL); AZT MPC4 SHV-12 KP1010 (KP1010 (SHV-12) [3]): X (X = MPC@4 ≤ 5 μg/mL); TIG MPC4 CTX-M-14 KP1005 (KP1005 (CTX-M-14) [4]): Y (Y = 5 μg/mL < MPC@4 ≤ 20 μg/mL); MPM MPC8 AB1054 OXA-23 (AB1054 (OXA-23)): X (X = MPC@1 ≤ 5 μg/mL); AZT MPC4 CTX-M-14 KP1005 (KP1005 (CTX-M-14) [5]): X (X = MPC@4 ≤ 5 μg/mL); TIG MPC4 SHV-5 ec308 (ec308 (SHV-5) [6]): X (X = MPC@4 ≤ 5 μg/mL); AZT MPC4 SHV-5 ec308 (ec308 (SHV-5) [7]): X (X = MPC@4 ≤ 5 μg/mL); TIG MPC4 CTX-M-15 KP1009 (KP1009 (CTX-M-15) [8]): X (X = MPC@4 ≤ 5 μg/mL); AZT MPC4 TEM-10 ec302 (ec302 (TEM-10) [9]): X (X = MPC@4 ≤ 5 μg/mL); AZT MPC4 CTX-M-15 KP1009 (KP1009 (CTX-M-15) [10]): X (X = MPC@4 ≤ 5 μg/mL); AZT MPC4 CMY-6 EC1010 (EC1010 (CMY-6)): X (X = MPC@4 ≤ 5 μg/mL)

Question: With `O=C(O)c1c(F)ccc2c1OB(O)[C@H]1C[C@@H]21` [Compound 12, (1aS,7bR)-5-fluoro-2-hydroxy-1a,7b-dihydro-1H-cyclopropa[c][1,2]benzoxaborinine-4-carboxylic acid] as the compound, how does the “TIG MPC4 TEM-10 ec302” value (ec302 (TEM-10) [1]) read?
Answer: The value was “X (X = MPC@4 ≤ 5 μg/mL)”.

Question: What about the “TIG MPC4 SHV-12 KP1010” value (KP1010 (SHV-12) [2]) of the same compound?
Answer: The value was “X (X = MPC@4 ≤ 5 μg/mL)”.

Question: What about the “AZT MPC4 SHV-12 KP1010” value (KP1010 (SHV-12) [3]) of the same compound?
Answer: Its value is “X (X = MPC@4 ≤ 5 μg/mL)”.

Question: What about the “TIG MPC4 CTX-M-14 KP1005” value (KP1005 (CTX-M-14) [4]) of the same compound?
Answer: Its value is “X (X = MPC@4 ≤ 5 μg/mL)”.

Question: What about the “MPM MPC8 AB1054 OXA-23” value (AB1054 (OXA-23)) of the same compound?
Answer: The value was “Y (Y = 5 μg/mL < MPC@1 ≤ 20 μg/mL)”.

Question: What about the “AZT MPC4 CTX-M-14 KP1005” value (KP1005 (CTX-M-14) [5]) of the same compound?
Answer: The value was “X (X = MPC@4 ≤ 5 μg/mL)”.

Question: And the “TIG MPC4 SHV-5 ec308” value (ec308 (SHV-5) [6])?
Answer: The value was “X (X = MPC@4 ≤ 5 μg/mL)”.

Question: What about the “AZT MPC4 SHV-5 ec308” value (ec308 (SHV-5) [7]) of the same compound?
Answer: Its value is “X (X = MPC@4 ≤ 5 μg/mL)”.

Question: What about the “TIG MPC4 CTX-M-15 KP1009” value (KP1009 (CTX-M-15) [8]) of the same compound?
Answer: Its value is “X (X = MPC@4 ≤ 5 μg/mL)”.

Question: What about the “AZT MPC4 TEM-10 ec302” value (ec302 (TEM-10) [9]) of the same compound?
Answer: The value was “X (X = MPC@4 ≤ 5 μg/mL)”.

Question: What about the “AZT MPC4 CTX-M-15 KP1009” value (KP1009 (CTX-M-15) [10]) of the same compound?
Answer: Its value is “X (X = MPC@4 ≤ 5 μg/mL)”.

Question: And the “AZT MPC4 CMY-6 EC1010” value (EC1010 (CMY-6))?
Answer: Its value is “X (X = MPC@4 ≤ 5 μg/mL)”.

Question: `O=C(O)c1c(F)ccc2c1OB(O)[C@@H]1C[C@H]21` [Compound 13, (1aR,7bS)-5-fluoro-2-hydroxy-1a,7b-dihydro-1H-cyclopropa[c][1,2]benzoxaborinine-4-carboxylic acid] was tested. Which “TIG MPC4 TEM-10 ec302” value (ec302 (TEM-10) [1]) did it give?
Answer: Its value is “X (X = MPC@4 ≤ 5 μg/mL)”.

Question: What about the “TIG MPC4 SHV-12 KP1010” value (KP1010 (SHV-12) [2]) of the same compound?
Answer: The value was “X (X = MPC@4 ≤ 5 μg/mL)”.

Question: And the “AZT MPC4 SHV-12 KP1010” value (KP1010 (SHV-12) [3])?
Answer: Its value is “X (X = MPC@4 ≤ 5 μg/mL)”.

Question: What about the “TIG MPC4 CTX-M-14 KP1005” value (KP1005 (CTX-M-14) [4]) of the same compound?
Answer: Its value is “X (X = MPC@4 ≤ 5 μg/mL)”.

Question: And the “MPM MPC8 AB1054 OXA-23” value (AB1054 (OXA-23))?
Answer: Its value is “X (X = MPC@1 ≤ 5 μg/mL)”.

Question: What about the “AZT MPC4 CTX-M-14 KP1005” value (KP1005 (CTX-M-14) [5]) of the same compound?
Answer: The value was “X (X = MPC@4 ≤ 5 μg/mL)”.

Question: What about the “TIG MPC4 SHV-5 ec308” value (ec308 (SHV-5) [6]) of the same compound?
Answer: The value was “X (X = MPC@4 ≤ 5 μg/mL)”.

Question: And the “AZT MPC4 SHV-5 ec308” value (ec308 (SHV-5) [7])?
Answer: The value was “X (X = MPC@4 ≤ 5 μg/mL)”.

Question: What about the “TIG MPC4 CTX-M-15 KP1009” value (KP1009 (CTX-M-15) [8]) of the same compound?
Answer: The value was “X (X = MPC@4 ≤ 5 μg/mL)”.

Question: What about the “AZT MPC4 TEM-10 ec302” value (ec302 (TEM-10) [9]) of the same compound?
Answer: The value was “X (X = MPC@4 ≤ 5 μg/mL)”.

Question: And the “AZT MPC4 CTX-M-15 KP1009” value (KP1009 (CTX-M-15) [10])?
Answer: Its value is “X (X = MPC@4 ≤ 5 μg/mL)”.

Question: And the “AZT MPC4 CMY-6 EC1010” value (EC1010 (CMY-6))?
Answer: The value was “X (X = MPC@4 ≤ 5 μg/mL)”.

Question: Which “TIG MPC4 TEM-10 ec302” value (ec302 (TEM-10) [1]) does the source give for `O=C(O)c1cccc2c1OB(O)CC21CC1` [Compound 14, 4,4-dihydroxyspiro[5-oxa-4-boranuidabicyclo[4.4.0]deca-1(6),7,9-triene-2,1′-cyclopropane]-7-carboxylic acid] here?
Answer: The value was “Z (Z = MPC@4 > 20 μg/mL)”.

Question: And the “TIG MPC4 SHV-12 KP1010” value (KP1010 (SHV-12) [2])?
Answer: Its value is “Y (Y = 5 μg/mL < MPC@4 ≤ 20 μg/mL)”.

Question: What about the “AZT MPC4 SHV-12 KP1010” value (KP1010 (SHV-12) [3]) of the same compound?
Answer: The value was “X (X = MPC@4 ≤ 5 μg/mL)”.

Question: What about the “TIG MPC4 CTX-M-14 KP1005” value (KP1005 (CTX-M-14) [4]) of the same compound?
Answer: The value was “Z (Z = MPC@4 > 20 μg/mL)”.

Question: And the “MPM MPC8 AB1054 OXA-23” value (AB1054 (OXA-23))?
Answer: Its value is “X (X = MPC@1 ≤ 5 μg/mL)”.

Question: What about the “AZT MPC4 CTX-M-14 KP1005” value (KP1005 (CTX-M-14) [5]) of the same compound?
Answer: Its value is “Z (Z = MPC@4 > 20 μg/mL)”.

Question: What about the “TIG MPC4 SHV-5 ec308” value (ec308 (SHV-5) [6]) of the same compound?
Answer: Its value is “Z (Z = MPC@4 > 20 μg/mL)”.

Question: And the “AZT MPC4 SHV-5 ec308” value (ec308 (SHV-5) [7])?
Answer: The value was “Y (Y = 5 μg/mL < MPC@4 ≤ 20 μg/mL)”.

Question: And the “TIG MPC4 CTX-M-15 KP1009” value (KP1009 (CTX-M-15) [8])?
Answer: Its value is “Z (Z = MPC@4 > 20 μg/mL)”.

Question: And the “AZT MPC4 TEM-10 ec302” value (ec302 (TEM-10) [9])?
Answer: Its value is “Y (Y = 5 μg/mL < MPC@4 ≤ 20 μg/mL)”.

Question: What about the “AZT MPC4 CTX-M-15 KP1009” value (KP1009 (CTX-M-15) [10]) of the same compound?
Answer: Its value is “Y (Y = 5 μg/mL < MPC@4 ≤ 20 μg/mL)”.

Question: What about the “AZT MPC4 CMY-6 EC1010” value (EC1010 (CMY-6)) of the same compound?
Answer: Its value is “X (X = MPC@4 ≤ 5 μg/mL)”.

From US11999759B2, “Boronic acid derivatives and therapeutic uses thereof” (Qpex Biopharma, Inc., priority 2016, dated 2024)
